{
  "source": "the supplement of paper PMC8728848",
  "binders": {"B1": {"name": "Als1 (Candida albicans), P46590 (protein)", "chain": "KTITGVFDSFNSLTWSNAANYAFKGPGYPTWNAVLGWSLDGTSANPGDTFTLNMPCVFKYTTSQTSVDLTADGVKYATCQFYSGEEFTTFSTLTCTVNDALKSSIKAFGTVTLPIAFNVGGTGSSTDLEDSKCFTAGTNTVTFNDGDKDISIDVEFEKSTVDPSGYLYASRVMPSLNKVTTLFVAPQCENGYTSGTMGFSSSNGDVAIDCSNIHIGITKGLNDWNYPVSSESFSYTKTCTSNGIQIKYQNVPAGYRPFIDAYISATDVNQYTLAYTNDYTCAGSRLQSKPFTLRWTGYKNSDAGSNGIVIVATTRTVTDSTTAVTTLPFNPSVDKTKTIEILQPIPTTTITTSYVGVTTSYLTKTAPIGETATVIVDVPYHTTTTVTSEWTGTITTTTTRTNPTDSIDTVVVQVP"}},
  "assay_in_all_cases": "glycan array binding signal (z-score within array); higher = stronger binding",
  "settings_in_all_cases": "glycan notation: IUPAC condensed, linker removed",
  "key": {"Neu5Ac(a2-6)Gal": {"molecular_target": "Neu5Ac(a2-6)Gal", "outline": "(§1)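 From the Consortium for Functional Glycomics database, 3228 arrays were curated, keeping only those whose protein sequence was available. Binding is given as a within-array Z-score averaged across arrays sharing a protein sequence and across linkers. Negative Z-scores can be read as non-binding.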"}, "[1]": {"molecular_target": "Neu5Ac(a2-6)Gal(b1-3)GlcNAc(b1-3)[Gal(b1-4)GlcNAc(b1-6)]Gal(b1-4)Glc", "outline": "as §1"}, "Neu5Ac(a2-6)Gal(b1-4)Glc": {"molecular_target": "Neu5Ac(a2-6)Gal(b1-4)Glc", "outline": "as §1"}, "[2]": {"molecular_target": "Neu5Ac(a2-6)Gal(b1-4)GlcNAc", "outline": "as §1"}, "[3]": {"molecular_target": "Neu5Ac(a2-6)Gal(b1-4)GlcNAc(b1-2)Man", "outline": "as §1"}, "[4]": {"molecular_target": "Neu5Ac(a2-6)Gal(b1-4)GlcNAc(b1-2)Man(a1-3)Man(b1-4)GlcNAc(b1-4)GlcNAc", "outline": "as §1"}, "[5]": {"molecular_target": "Neu5Ac(a2-6)Gal(b1-4)GlcNAc(b1-2)Man(a1-3)[Gal(b1-4)GlcNAc(b1-2)Man(a1-6)]Man(b1-4)GlcNAc(b1-4)GlcNAc", "outline": "as §1"}, "[6]": {"molecular_target": "Neu5Ac(a2-6)Gal(b1-4)GlcNAc(b1-2)Man(a1-3)[GlcNAc(b1-2)Man(a1-6)]Man(b1-4)GlcNAc(b1-4)GlcNAc", "outline": "as §1"}, "[7]": {"molecular_target": "Neu5Ac(a2-6)Gal(b1-4)GlcNAc(b1-2)Man(a1-3)[GlcNAc(b1-4)][Neu5Ac(a2-6)Gal(b1-4)GlcNAc(b1-2)Man(a1-6)]Man(b1-4)GlcNAc(b1-4)GlcNAc", "outline": "as §1"}, "[8]": {"molecular_target": "Neu5Ac(a2-6)Gal(b1-4)GlcNAc(b1-2)Man(a1-3)[Man(a1-6)]Man(b1-4)GlcNAc(b1-4)GlcNAc", "outline": "as §1"}, "[9]": {"molecular_target": "Neu5Ac(a2-6)Gal(b1-4)GlcNAc(b1-2)Man(a1-3)[Neu5Ac(a2-3)Gal(b1-4)GlcNAc(b1-2)Man(a1-6)]Man(b1-4)GlcNAc(b1-4)GlcNAc", "outline": "as §1"}, "[10]": {"molecular_target": "Neu5Ac(a2-6)Gal(b1-4)GlcNAc(b1-2)Man(a1-3)[Neu5Ac(a2-6)Gal(b1-4)GlcNAc(b1-2)Man(a1-6)]Man(b1-4)GlcNAc(b1-4)GlcNAc", "outline": "as §1"}, "[11]": {"molecular_target": "Neu5Ac(a2-6)Gal(b1-4)GlcNAc(b1-2)Man(a1-3)[Neu5Ac(a2-6)Gal(b1-4)GlcNAc(b1-2)Man(a1-6)]Man(b1-4)GlcNAc(b1-4)[Fuc(a1-6)]GlcNAc", "outline": "as §1"}, "[12]": {"molecular_target": "Neu5Ac(a2-6)Gal(b1-4)GlcNAc(b1-2)Man(a1-6)Man(b1-4)GlcNAc(b1-4)GlcNAc", "outline": "as §1"}, "[13]": {"molecular_target": "Neu5Ac(a2-6)Gal(b1-4)GlcNAc(b1-2)Man(a1-6)[Gal(b1-4)GlcNAc(b1-2)Man(a1-3)]Man(b1-4)GlcNAc(b1-4)GlcNAc", "outline": "as §1"}, "[14]": {"molecular_target": "Neu5Ac(a2-6)Gal(b1-4)GlcNAc(b1-2)Man(a1-6)[GlcNAc(b1-2)Man(a1-3)]Man(b1-4)GlcNAc(b1-4)GlcNAc", "outline": "as §1"}, "[15]": {"molecular_target": "Neu5Ac(a2-6)Gal(b1-4)GlcNAc(b1-2)Man(a1-6)[Man(a1-3)]Man(b1-4)GlcNAc(b1-4)GlcNAc", "outline": "as §1"}, "[16]": {"molecular_target": "Neu5Ac(a2-6)Gal(b1-4)GlcNAc(b1-2)[Neu5Ac(a2-6)Gal(b1-4)GlcNAc(b1-4)]Man(a1-3)[GlcNAc(b1-4)][Neu5Ac(a2-6)Gal(b1-4)GlcNAc(b1-2)[Neu5Ac(a2-6)Gal(b1-4)GlcNAc(b1-6)]Man(a1-6)]Man(b1-4)GlcNAc(b1-4)GlcNAc", "outline": "as §1"}, "[17]": {"molecular_target": "Neu5Ac(a2-6)Gal(b1-4)GlcNAc(b1-2)[Neu5Ac(a2-6)Gal(b1-4)GlcNAc(b1-4)]Man(a1-3)[GlcNAc(b1-4)][Neu5Ac(a2-6)Gal(b1-4)GlcNAc(b1-4)Man(a1-6)]Man(b1-4)GlcNAc(b1-4)GlcNAc", "outline": "as §1"}, "[18]": {"molecular_target": "Neu5Ac(a2-6)Gal(b1-4)GlcNAc(b1-2)[Neu5Ac(a2-6)Gal(b1-4)GlcNAc(b1-6)]Man(a1-6)[Neu5Ac(a2-6)Gal(b1-4)GlcNAc(b1-2)Man(a1-3)][GlcNAc(b1-4)]Man(b1-4)GlcNAc(b1-4)GlcNAc", "outline": "as §1"}, "[19]": {"molecular_target": "Neu5Ac(a2-6)Gal(b1-4)GlcNAc(b1-3)Gal(b1-3)GlcNAc", "outline": "as §1"}, "[20]": {"molecular_target": "Neu5Ac(a2-6)Gal(b1-4)GlcNAc(b1-3)Gal(b1-4)GlcNAc", "outline": "as §1"}, "[21]": {"molecular_target": "Neu5Ac(a2-6)Gal(b1-4)GlcNAc(b1-3)Gal(b1-4)GlcNAc(b1-2)Man(a1-3)[Neu5Ac(a2-6)Gal(b1-4)GlcNAc(b1-3)Gal(b1-4)GlcNAc(b1-2)Man(a1-6)]GalNAc", "outline": "as §1"}, "[22]": {"molecular_target": "Neu5Ac(a2-6)Gal(b1-4)GlcNAc(b1-3)Gal(b1-4)GlcNAc(b1-3)Gal(b1-4)GlcNAc", "outline": "as §1"}, "[23]": {"molecular_target": "Neu5Ac(a2-6)Gal(b1-4)GlcNAc(b1-3)Gal(b1-4)GlcNAc(b1-3)Gal(b1-4)GlcNAc(b1-2)Man(a1-3)[Neu5Ac(a2-6)Gal(b1-4)GlcNAc(b1-3)Gal(b1-4)GlcNAc(b1-3)Gal(b1-4)GlcNAc(b1-2)Man(a1-6)]GalNAc", "outline": "as §1"}, "[24]": {"molecular_target": "Neu5Ac(a2-6)Gal(b1-4)GlcNAc(b1-3)Gal(b1-4)GlcNAc(b1-3)GalNAc", "outline": "as §1"}, "[25]": {"molecular_target": "Neu5Ac(a2-6)Gal(b1-4)GlcNAc(b1-3)Gal(b1-4)GlcNAc(b1-3)[Neu5Ac(a2-6)Gal(b1-4)GlcNAc(b1-3)Gal(b1-4)GlcNAc(b1-6)]GalNAc", "outline": "as §1"}, "[26]": {"molecular_target": "Neu5Ac(a2-6)Gal(b1-4)GlcNAc(b1-3)Gal(b1-4)GlcNAc(b1-6)[Gal(b1-3)]GalNAc", "outline": "as §1"}, "[27]": {"molecular_target": "Neu5Ac(a2-6)Gal(b1-4)GlcNAc(b1-3)Gal(b1-4)[Fuc(a1-3)]GlcNAc(b1-3)Gal(b1-4)[Fuc(a1-3)]GlcNAc", "outline": "as §1"}, "[28]": {"molecular_target": "Neu5Ac(a2-6)Gal(b1-4)GlcNAc(b1-3)GalNAc", "outline": "as §1"}, "[29]": {"molecular_target": "Neu5Ac(a2-6)Gal(b1-4)GlcNAc(b1-3)[Neu5Ac(a2-6)Gal(b1-4)GlcNAc(b1-6)]GalNAc", "outline": "as §1"}, "[30]": {"molecular_target": "Neu5Ac(a2-6)Gal(b1-4)GlcNAc(b1-6)GalNAc", "outline": "as §1"}, "[31]": {"molecular_target": "Neu5Ac(a2-6)Gal(b1-4)GlcNAc(b1-6)[Gal(b1-3)GlcNAc(b1-3)]Gal(b1-4)Glc", "outline": "as §1"}, "[32]": {"molecular_target": "Neu5Ac(a2-6)Gal(b1-4)GlcNAc(b1-6)[Gal(b1-3)]GalNAc", "outline": "as §1"}, "[33]": {"molecular_target": "Neu5Ac(a2-6)Gal(b1-4)GlcNAc6S", "outline": "as §1"}, "Neu5Ac(a2-6)GalNAc": {"molecular_target": "Neu5Ac(a2-6)GalNAc", "outline": "as §1"}, "[34]": {"molecular_target": "Neu5Ac(a2-6)GalNAc(b1-4)GlcNAc", "outline": "as §1"}, "[35]": {"molecular_target": "Neu5Ac(a2-6)GalNAc(b1-4)GlcNAc6S", "outline": "as §1"}},
  "note": "Some of the results follow.",
  "data": [
    {"binder": "B1", "values": [
      {"measurement": "glycan array binding signal (z-score)", "setting": "Neu5Ac(a2-6)Gal", "result": 0.039},
      {"measurement": "glycan array binding signal (z-score)", "setting": "[1]", "result": -0.516},
      {"measurement": "glycan array binding signal (z-score)", "setting": "Neu5Ac(a2-6)Gal(b1-4)Glc", "result": -0.495},
      {"measurement": "glycan array binding signal (z-score)", "setting": "[2]", "result": -0.22},
      {"measurement": "glycan array binding signal (z-score)", "setting": "[3]", "result": -0.302},
      {"measurement": "glycan array binding signal (z-score)", "setting": "[4]", "result": 0.451},
      {"measurement": "glycan array binding signal (z-score)", "setting": "[5]", "result": -0.55},
      {"measurement": "glycan array binding signal (z-score)", "setting": "[6]", "result": -0.596},
      {"measurement": "glycan array binding signal (z-score)", "setting": "[7]", "result": 0.276},
      {"measurement": "glycan array binding signal (z-score)", "setting": "[8]", "result": 0.175},
      {"measurement": "glycan array binding signal (z-score)", "setting": "[9]", "result": -0.709},
      {"measurement": "glycan array binding signal (z-score)", "setting": "[10]", "result": -0.372},
      {"measurement": "glycan array binding signal (z-score)", "setting": "[11]", "result": -0.555},
      {"measurement": "glycan array binding signal (z-score)", "setting": "[12]", "result": -0.334},
      {"measurement": "glycan array binding signal (z-score)", "setting": "[13]", "result": -0.194},
      {"measurement": "glycan array binding signal (z-score)", "setting": "[14]", "result": -0.623},
      {"measurement": "glycan array binding signal (z-score)", "setting": "[15]", "result": 0.367},
      {"measurement": "glycan array binding signal (z-score)", "setting": "[16]", "result": -0.67},
      {"measurement": "glycan array binding signal (z-score)", "setting": "[17]", "result": -0.261},
      {"measurement": "glycan array binding signal (z-score)", "setting": "[18]", "result": -0.081},
      {"measurement": "glycan array binding signal (z-score)", "setting": "[19]", "result": -0.073},
      {"measurement": "glycan array binding signal (z-score)", "setting": "[20]", "result": -0.643},
      {"measurement": "glycan array binding signal (z-score)", "setting": "[21]", "result": 1.05},
      {"measurement": "glycan array binding signal (z-score)", "setting": "[22]", "result": -0.201},
      {"measurement": "glycan array binding signal (z-score)", "setting": "[23]", "result": 2.83},
      {"measurement": "glycan array binding signal (z-score)", "setting": "[24]", "result": 1.73},
      {"measurement": "glycan array binding signal (z-score)", "setting": "[25]", "result": 0.519},
      {"measurement": "glycan array binding signal (z-score)", "setting": "[26]", "result": -0.05},
      {"measurement": "glycan array binding signal (z-score)", "setting": "[27]", "result": -0.465},
      {"measurement": "glycan array binding signal (z-score)", "setting": "[28]", "result": 0.836},
      {"measurement": "glycan array binding signal (z-score)", "setting": "[29]", "result": -0.213},
      {"measurement": "glycan array binding signal (z-score)", "setting": "[30]", "result": 0.871},
      {"measurement": "glycan array binding signal (z-score)", "setting": "[31]", "result": -0.729},
      {"measurement": "glycan array binding signal (z-score)", "setting": "[32]", "result": 0.161},
      {"measurement": "glycan array binding signal (z-score)", "setting": "[33]", "result": 0.516},
      {"measurement": "glycan array binding signal (z-score)", "setting": "Neu5Ac(a2-6)GalNAc", "result": -0.464},
      {"measurement": "glycan array binding signal (z-score)", "setting": "[34]", "result": 1.21},
      {"measurement": "glycan array binding signal (z-score)", "setting": "[35]", "result": 0.305}
    ]}
  ]
}
